Among the data in article PMC7819943, “Rice protein-binding microarrays: a tool to detect cis-acting elements near promoter regions in rice” are binding signal values, retold here.

Some of the results follow.

For this test, the target named is T1, OsWOX13 (Oryza sativa, UniProt Q5QMM3 1-267).
T1 sequence: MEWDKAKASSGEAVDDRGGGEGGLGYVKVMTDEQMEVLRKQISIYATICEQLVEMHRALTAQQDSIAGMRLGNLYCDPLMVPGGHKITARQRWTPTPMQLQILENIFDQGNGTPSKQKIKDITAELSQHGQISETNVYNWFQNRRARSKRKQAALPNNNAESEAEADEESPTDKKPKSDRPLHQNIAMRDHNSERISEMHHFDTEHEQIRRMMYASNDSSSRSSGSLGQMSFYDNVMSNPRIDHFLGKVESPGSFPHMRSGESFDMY
In words: protein-binding microarray (RPBM); PBS, 2% BSA, 51.3 ng/ul salmon testes DNA, 50 uM zinc acetate, 200 nM TF, 25 C, 1 h; high values mean tight binding. Conditions: protein: recombinant; tags: N-terminal polyhistidine and DsRed monomer fusion (pET32a); label: CyDye5-dUTP incorporated in the synthesized complementary strand; 3' TTTTT single-stranded linker to array surface; dsDNA, one strand shown. The method, boiled down: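 Binding signal is reported as fluorescence intensity per feature (arbitrary units) from an Axon 4000B scanner. Incubation used 200 nM of each Ni–NTA-purified, N-terminally polyhistidine- and DsRed-fused transcription factor from E. coli BL21-CodonPlus on a double-stranded custom Agilent array for 1 h at 25 °C, with 50 µM zinc acetate in the buffer, followed by washing.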
Turning to “ATGTGGCCGATAATTGCTTTGCATGCTGATGGATGTGGCTCGGAGTCACCTAGTGCAG”, the binding signal is 4180 fluorescence intensity (a.u.).
As for “TTATGATTTGGACACTTGGTGATTAACTACTGATAATAGTCGGAGTCACCTAGTGCAG”, the binding signal is 17900 fluorescence intensity (a.u.).
“TTCAACAGATTGATTGTTCTGTTGATTGGTACGCAGAGAACGGAGTCACCTAGTGCAG”: the binding signal is 49600 fluorescence intensity (a.u.).
On to “CCGTGACAGCGACATTCTTTACCTGCCCAACCCCAACCCCCGGAGTCACCTAGTGCAG”, for which the binding signal is 8740 fluorescence intensity (a.u.).
Next, “GAAATTTGACGGAAATTTCCGGACAAATACGGTTATCGACCGGAGTCACCTAGTGCAG”: 7180 fluorescence intensity (a.u.); “ACACCAATCAAAATAGAGTTAATTATAAATATACTAGTCGCGGAGTCACCTAGTGCAG”: 30300 fluorescence intensity (a.u.).
With “CATAAATTAGAAATGAGCTACAAGTATGACTGGGGATAAACGGAGTCACCTAGTGCAG”, the binding signal was 7010 fluorescence intensity (a.u.).
In the case of “TCACCTAAAATTGACAGATAACTTCTCTAATATCTATAATCGGAGTCACCTAGTGCAG”, the binding signal was 14800 fluorescence intensity (a.u.).
As for “ATTTAAATTGGTACCTCTTTTCTATGTCAAATGGAAATTGCGGAGTCACCTAGTGCAG”, the binding signal is 28800 fluorescence intensity (a.u.).
Next, “GAGAATGATTCACATGAAATTTGTGATGTCCATGTCACATCGGAGTCACCTAGTGCAG”: 3530 fluorescence intensity (a.u.).
For “AAATGCCAATTTAATTGGAACATCGTGATGTCAAATGAGCCGGAGTCACCTAGTGCAG”, the binding signal was 17200 fluorescence intensity (a.u.).
Take “AATGACGGAAGTGATTTTGAGATAAAATGGTTGACAGTTGCGGAGTCACCTAGTGCAG”: the binding signal was 11600 fluorescence intensity (a.u.).
As to “CTTGGATGATAGACATAGACTGATTAGCAAACCAATTCATCGGAGTCACCTAGTGCAG”, the binding signal is 25600 fluorescence intensity (a.u.).
With “CGAGCCAATCAAGTTGTTTTAAGGAAAGCAAACGTACGCACGGAGTCACCTAGTGCAG”, the binding signal is 10500 fluorescence intensity (a.u.).
Under “ATGTGGTAATATAATTATGTGAGGAGAGTGAGACGGGTAACGGAGTCACCTAGTGCAG” stands 5530 fluorescence intensity (a.u.); under “ATAGTTAATTATTCCTGATTGAGTAGTATAGGGACGCACACGGAGTCACCTAGTGCAG”, 40700 fluorescence intensity (a.u.).
Under “CCTCTAAATTGAATTACTCCGTATGTACCTTTATCACACCCGGAGTCACCTAGTGCAG” stands 45800 fluorescence intensity (a.u.); under “AAAGCTAAATTGATGGACGCTTGAGTCAGATTTGATCCATCGGAGTCACCTAGTGCAG”, 20200 fluorescence intensity (a.u.); under “TTTCAAATTTGAATTTGAATTCAAATATCCTATTCAAATTCGGAGTCACCTAGTGCAG”, 4080 fluorescence intensity (a.u.).
Under “ACTAACTGTGATGGTGAGAACTAATACTTCCTCCGTTTTACGGAGTCACCTAGTGCAG” stands 3600 fluorescence intensity (a.u.); under “TATAAATATAATTTATCCAAAGAGCATTTATAAGGACTTCCGGAGTCACCTAGTGCAG”, 4240 fluorescence intensity (a.u.); under “TATAATTTAAATTCAAATTTGAATCGGGTATGTAAACTTTCGGAGTCACCTAGTGCAG”, 15500 fluorescence intensity (a.u.).
For the sequence “GAAAATTTACAAATCTAATCGCCTGCCGCCCTTTGGGAGGCGGAGTCACCTAGTGCAG”, the binding signal was 6470 fluorescence intensity (a.u.).
